{"source": "PubChem BioAssay AID504332", "about": "(National Center for Advancing Translational Sciences (NCATS), 2011)", "note": "About 31,000 (8.9%) of roughly 350,000 compounds were called active. Inconclusive means that the source gave no clear call. Such entries were picked first, then a sample of the others. Calls follow the shape of the dose curve; as a rule, active = well fitted inhibition curve with a large enough effect; inconclusive = small, poorly fitted or top-dose-only effect; inactive = no such curve, though single readings can be large or run the other way. Potencies beside an inconclusive call are fits to weak or partial responses and may not hold up. % is scaled to controls: 0 for no effect and ±100 for the full control effect; potency is read from the fitted curve at half-maximal effect; tags tell the direction and shape of the fitted curve."}
{"target": "Histone-lysine N-methyltransferase EHMT2 (Homo sapiens) (UniProt Q96KQ7)", "sequence (Q96KQ7 whole entry, looked up)": "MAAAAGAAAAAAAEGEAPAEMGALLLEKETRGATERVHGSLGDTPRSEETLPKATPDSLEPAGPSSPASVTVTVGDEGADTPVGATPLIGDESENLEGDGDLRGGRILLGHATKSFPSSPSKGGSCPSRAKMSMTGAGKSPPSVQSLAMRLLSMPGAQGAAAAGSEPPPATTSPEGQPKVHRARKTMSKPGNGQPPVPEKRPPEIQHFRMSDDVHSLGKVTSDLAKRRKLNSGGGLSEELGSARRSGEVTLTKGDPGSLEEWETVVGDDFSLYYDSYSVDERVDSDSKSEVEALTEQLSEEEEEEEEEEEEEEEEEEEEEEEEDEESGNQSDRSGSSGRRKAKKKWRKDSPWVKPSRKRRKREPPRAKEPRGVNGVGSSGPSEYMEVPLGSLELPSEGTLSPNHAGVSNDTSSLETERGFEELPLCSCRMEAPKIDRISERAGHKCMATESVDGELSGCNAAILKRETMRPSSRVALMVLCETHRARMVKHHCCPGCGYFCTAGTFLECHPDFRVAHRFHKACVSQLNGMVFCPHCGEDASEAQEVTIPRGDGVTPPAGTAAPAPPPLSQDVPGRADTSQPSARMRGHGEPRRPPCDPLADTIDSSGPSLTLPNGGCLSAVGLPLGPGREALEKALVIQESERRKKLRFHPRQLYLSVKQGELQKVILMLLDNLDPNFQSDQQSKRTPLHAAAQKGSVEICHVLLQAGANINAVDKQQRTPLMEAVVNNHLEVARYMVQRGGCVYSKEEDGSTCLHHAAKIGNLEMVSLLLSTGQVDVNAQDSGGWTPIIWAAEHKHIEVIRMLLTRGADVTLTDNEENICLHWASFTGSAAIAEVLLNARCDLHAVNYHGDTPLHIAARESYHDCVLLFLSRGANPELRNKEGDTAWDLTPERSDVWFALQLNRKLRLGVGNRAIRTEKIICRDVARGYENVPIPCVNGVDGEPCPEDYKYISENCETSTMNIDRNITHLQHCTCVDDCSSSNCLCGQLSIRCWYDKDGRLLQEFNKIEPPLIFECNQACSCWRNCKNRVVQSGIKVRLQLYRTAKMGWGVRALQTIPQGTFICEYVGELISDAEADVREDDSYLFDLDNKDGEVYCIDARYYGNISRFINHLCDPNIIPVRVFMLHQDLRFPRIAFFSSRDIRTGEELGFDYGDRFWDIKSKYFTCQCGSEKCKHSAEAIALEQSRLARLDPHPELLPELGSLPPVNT", "experiment": "qHTS Assay for Inhibitors of Histone Lysine Methyltransferase G9a; also: nearly all actives have a fitted effect of over 75% in size", "conditions": "G9a H3K9 monomethylation, AlphaScreen, 2 h; activity, negative = inhibition: at 59 µM (top of the series) unless noted", "summary_of_the_method": "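Step 1: enzyme (final 20 nM) with compound, 15 min RT. Step 2: substrate peptide 500 nM and SAM 20 uM, 2 h RT. Step 3: anti-H3K9me1 antibody and AlphaScreen beads, 10 min, then plate read.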"}
{"smiles": "O=C1CN(C(=O)CSc2nc3ccccc3n2CCc2ccccc2)c2ccccc2N1", "Potency": "active: 10 µM"}
{"smiles": "COc1ccc(OCC(O)Cn2cnc(-c3ccc(Br)cc3)c2)cc1", "note": "(stereo unspecified)", "Potency": "active: 17.8 µM"}
{"smiles": "S=C(Nc1cccc(Br)c1)c1ccccc1", "Potency": "inconclusive: 39.8 µM [inhibitor, single point]"}
{"smiles": "Cc1ccccc1NC(=O)CSC(N)=O", "activity, negative = inhibition": "inconclusive: -88.8% [inhibitor]"}
{"smiles": "COC(=O)c1c(NC(=O)C(C)C)sc(C(=O)N2CCOCC2)c1C", "Potency": "active: 44.7 µM"}
{"smiles": "O=C1OCCC/C1=C\\c1ccc2c(c1)OCO2", "activity, negative = inhibition": "inactive: -13.1% [at 12.7 µM]"}
{"smiles": "O=C(Nc1ccccc1)N1CC2(CCN(C(=O)c3cnccn3)CC2)C1", "activity, negative = inhibition": "inactive: 9.11% [at 12.7 µM]"}
{"smiles": "N#Cc1ccccc1NC(=O)C(=O)NCC(c1ccc2c(c1)OCO2)N1CCOCC1", "note": "(stereo unspecified)", "activity, negative = inhibition": "inactive: -4.48%"}
{"smiles": "CCN(Cc1cc(OC)c(OC)c(OC)c1)C(=S)Nc1cccc(SC)c1", "activity, negative = inhibition": "inactive: -8.75% [at 102 µM]"}
{"smiles": "CN(C)c1nc(-c2cccnc2)nc(-c2ccc(Cl)cc2)c1C#N", "Potency": "inconclusive: 79.4 µM [inhibitor, single point]"}
{"smiles": "COCCN(C(=O)COC(=O)c1cc(C)n(-c2ccccc2)c1C)c1c(N)n(Cc2ccccc2)c(=O)[nH]c1=O", "Potency": "inconclusive: 79.4 µM [inhibitor, single point]"}
{"smiles": "CCC(C)NC(=O)Cc1ccc(NC(=O)N2CCCCc3ccccc32)cc1", "note": "(stereo unspecified)", "activity, negative = inhibition": "inactive: 22.3%"}
{"smiles": "CCn1c2ccccc2c2cc(NC(=O)CSc3nnc(C4CC4)n3Cc3ccco3)ccc21", "Potency": "active: 10 µM"}
{"smiles": "CCN(CC)C(=O)c1sc(N)c(C(=O)OC(C)C)c1C", "Potency": "active: 11.2 µM"}
{"smiles": "CC(C)Oc1ccc(CNC(=O)C2CCCCN2S(=O)(=O)c2ccc(F)cc2)cc1", "note": "(stereo unspecified)", "activity, negative = inhibition": "inactive: -5.55%"}
{"smiles": "Cc1ccc(NC(=O)Cn2c(O)c(N=NS(=O)(=O)c3ccc(C)cc3)c3ccccc32)cc1", "Potency": "active: 2.51 µM"}
{"smiles": "CC(=O)N1CC[C@H]2CC(=O)CC[C@@]21C", "activity, negative = inhibition": "inactive: 18.9% [at 135 µM]"}
{"smiles": "CN(CC(=O)NCc1cccnc1)S(=O)(=O)c1cc(Cl)ccc1Cl", "activity, negative = inhibition": "inactive: -31.6% [at 102 µM]"}
{"smiles": "CCCCN(C)C(=O)c1ccc2c(c1)N(Cc1ccc(F)cc1)C(=O)c1ccccc1S2(=O)=O", "activity, negative = inhibition": "inactive: -23%"}
{"smiles": "CCOC(=O)C1=C(C)N(c2ccccc2)C(=O)/C1=C\\c1ccc(O)c(OC)c1", "Potency": "active: 3.16 µM"}
{"smiles": "Cc1ccccc1Cn1c(=O)n(C)c(=O)c2sccc21", "activity, negative = inhibition": "inactive: 40.4%"}
{"smiles": "CCc1nnc(NC(=O)c2ccc(S(=O)(=O)N(CC)CC)cc2)s1", "Potency": "inconclusive: 39.8 µM [inhibitor, single point]"}
{"smiles": "Cc1ccc(NC(=O)CCNS(=O)(=O)c2ccccc2)cc1S(=O)(=O)N1CCOCC1", "Potency": "inconclusive: 70.8 µM [inhibitor, single point]"}
{"smiles": "COc1ccc(N=c2cc(-c3ccc(OC)cc3)oc3ccccc23)cc1", "Potency": "active: 14.1 µM"}
{"smiles": "O=C(Cc1ccccc1[N+](=O)[O-])NCCCc1ccccc1", "Potency": "inconclusive: 89.1 µM [inhibitor, single point]"}
{"smiles": "CC(=O)N1CCOc2cc(S(=O)(=O)Nc3c(C)cccc3C(C)C)c(Cl)cc21", "Potency": "inconclusive: 10 µM [inhibitor, partial curve, poor fit]"}
{"smiles": "C=C(C)Cn1c(=O)c2c(nc3n2CC(C)CN3Cc2ccccc2)n(C)c1=O", "note": "(stereo unspecified)", "Potency": "inconclusive: 89.1 µM [inhibitor, partial curve, poor fit]"}
{"smiles": "O=C(CSc1nnc(-c2ccco2)n1CC1CCCO1)N1CCCCC1", "note": "(stereo unspecified)", "Potency": "inconclusive: 20 µM [inhibitor, single point]"}
{"smiles": "COc1cc2[nH]c(C(=O)N3CCC(Cc4ccccc4)CC3)cc2c(OC)c1OC", "Potency": "inconclusive: 1.41 µM [inhibitor, full curve]"}
{"smiles": "Cc1ccc(C(=O)Nc2ccccc2N2CCCCC2)cc1[N+](=O)[O-]", "Potency": "inconclusive: 79.4 µM [inhibitor, partial curve, poor fit]"}
{"smiles": "COc1cc(/C=C2\\SC(=N)N(c3ccc4c(c3)OCO4)C2=O)cc(OC)c1O", "Potency": "inconclusive: 79.4 µM [inhibitor, single point]"}
{"smiles": "COc1cc2c(C#N)c(N3CCN(C)CC3)nc(N)c2c(N)n1", "Potency": "active: 50.1 µM"}
{"smiles": "CC(=O)c1ccc(-c2ccccc2[C@H]2[C@H]3C=CC[C@@H](C)[C@@H]3C(=O)N2Cc2ccccc2)cc1", "activity, negative = inhibition": "inactive: 2.55%"}
{"smiles": "Cc1scc(CN2CCN(c3ccc(F)cc3)CC2)c1C", "Potency": "inconclusive: 31.6 µM [inhibitor, partial curve, poor fit]"}
{"smiles": "COc1ccc2cc(C(=O)Nc3ccc(Cl)cc3)sc(=O)c2c1OC", "Potency": "inconclusive: 79.4 µM [inhibitor, single point]"}
{"smiles": "COc1ccc(N(CC(=O)NCCc2ccccc2)C(=O)CCC(=O)Nc2nccs2)c(OC)c1", "activity, negative = inhibition": "inactive: -0.0239% [at 102 µM]"}
{"smiles": "CCC1CN(C(=O)N2CCC(C(=O)NCc3cccc(F)c3)CC2)c2ccccc2O1", "note": "(stereo unspecified)", "activity, negative = inhibition": "inactive: 21.8% [at 102 µM]"}
{"smiles": "Cc1nnc2n(Cc3ccccc3)c(=O)c3c4c(sc3n12)CCCC4", "activity, negative = inhibition": "inactive: -3.2%"}
{"smiles": "O=C(Cc1ccc(-n2c(=S)[nH]c3ccccc3c2=O)cc1)N1CCC(N2CCCCC2)CC1", "Potency": "active: 50.1 µM"}
{"smiles": "CCn1c(C)c(C)c2cc(C(=O)NCCCN3CCN(C)CC3)ccc21", "Potency": "inconclusive: 79.4 µM [inhibitor, single point]"}
{"smiles": "CSc1nnc2n(Cc3ccccc3)c(=O)c3c4c(sc3n12)COC(C(C)C)C4", "note": "(stereo unspecified)", "Potency": "inconclusive: 0.141 µM [inhibitor, full curve, poor fit]"}
{"smiles": "C=CCc1cc(Cl)ccc1OCCCn1ccnc1", "Potency": "active: 10 µM"}
{"smiles": "O=C(CC(c1ccc(F)cc1)c1ccco1)N1CCCC1", "note": "(stereo unspecified)", "Potency": "active: 39.8 µM"}
{"smiles": "COc1ccc(/C(C)=N\\NS(=O)(=O)c2ccccc2)cc1OC", "Potency": "inconclusive: 1 µM [inhibitor, partial curve, poor fit]"}
{"smiles": "NNc1nc2c(F)cccc2s1", "Potency": "inconclusive: 79.4 µM [inhibitor, single point]"}
{"smiles": "CCn1c(=S)[nH]c2sc3c(c2c1=O)CCCCC3", "Potency": "inconclusive: 31.6 µM [inhibitor, partial curve, poor fit]"}
{"smiles": "Cc1csc(N/N=C\\c2cccnc2)n1", "Potency": "active: 44.7 µM"}
{"smiles": "CCOc1ccc(/C=N/n2cnnc2)cc1", "activity, negative = inhibition": "inactive: -30.8% [at 12.7 µM]"}
{"smiles": "C/C(CCC1CC(C)OC1=O)=N/Nc1nc(-c2ccccc2)cs1", "note": "(stereo unspecified)", "Potency": "active: 8.91 µM"}
{"smiles": "O=C(NC(=S)NC1C2CC3CC(C2)CC1C3)c1ccccc1", "note": "(stereo unspecified)", "Potency": "inconclusive: 44.7 µM [inhibitor, single point]"}
{"smiles": "COC(=O)C1(CCSC)NC(c2ccc(O)c(OC)c2)C2C(=O)N(c3ccc(C)cc3)C(=O)C21", "note": "(stereo unspecified)", "activity, negative = inhibition": "inactive: -3.48% [at 102 µM]"}
{"smiles": "CC(C)Oc1ccccc1C1CC(=O)Nc2cc3c(cc21)OCCO3", "note": "(stereo unspecified)", "activity, negative = inhibition": "inactive: -8.81%"}
{"smiles": "O=C(COC(=O)c1ccc(Br)o1)Nc1ccc2[nH]c(=O)[nH]c2c1", "activity, negative = inhibition": "inactive: 17.2% [at 12.7 µM]"}
{"smiles": "O=[N+]([O-])c1ccc(-c2ccc(/C=N/n3cnnc3)o2)c(Br)c1", "Potency": "active: 50.1 µM"}
{"smiles": "Cc1oc(-c2ccc(Cl)cc2)nc1CN1CCCC(C(=O)NCc2ccccn2)C1", "note": "(stereo unspecified)", "activity, negative = inhibition": "inactive: -5.42% [at 102 µM]"}
{"smiles": "Fc1ccccc1/C=N/n1cc(-c2ccccc2)[nH]c1=S", "Potency": "inconclusive: 1.41 µM [inhibitor, partial curve, poor fit]"}
{"smiles": "CC1CN(C(=S)SCC(=O)c2ccc([N+](=O)[O-])cc2)CC(C)O1", "note": "(stereo unspecified)", "Potency": "active: 14.1 µM"}
{"smiles": "COc1ccc(C(=O)OC(COc2ccccc2)Cn2ccnc2)cc1", "note": "(stereo unspecified)", "Potency": "inconclusive: 39.8 µM [inhibitor, single point]"}
{"smiles": "CCC1CCCCN1CCCNC(=O)c1ccc2c(c1)NC(=O)CN2C", "note": "(stereo unspecified)", "Potency": "inconclusive: 50.1 µM [inhibitor, single point]"}
{"smiles": "O=C(NCC(=O)N(CCc1ccccc1)C(C(=O)NC1CCCCC1)c1ccncc1)c1ccco1", "note": "(stereo unspecified)", "Potency": "active: 39.8 µM"}
{"smiles": "Nc1ncc(-c2ccccc2)c(-c2ccc(O)cc2O)n1", "activity, negative = inhibition": "inactive: 10.5% [at 102 µM]"}
{"smiles": "O=C1/C(=C/c2ccc(O)c(O)c2)Oc2cc(O)ccc21", "Potency": "inconclusive: 6.31 µM [inhibitor, single point]"}
{"smiles": "Cc1cccc(NC(=O)c2ccc(Cl)c(S(=O)(=O)N3CCc4ccccc43)c2)n1", "activity, negative = inhibition": "inactive: -25.8% [at 12.7 µM]"}
{"smiles": "CCC(C)[C@H](NC(=O)[C@@H]1CSC2c3ccccc3C(=O)N21)C(=O)NCc1ccncc1", "note": "(stereo partly specified)", "Potency": "inconclusive: 89.1 µM [inhibitor, single point]"}
{"smiles": "O=C(O)CSc1nnc(-c2ccncc2)n1-c1ccc(Cl)cc1", "Potency": "inconclusive: 35.5 µM [inhibitor, single point]"}
{"smiles": "Cc1c(Cc2ccc3c(c2)OCO3)sc(NC(=O)c2ccccc2)c1C(N)=O", "Potency": "active: 31.6 µM"}
{"smiles": "CCn1c(NC(C)=O)nc2ccccc21", "Potency": "active: 10 µM"}
{"smiles": "CCOc1ccc(/C=C/C(=O)N(CC)CC(=O)NCc2cccs2)cc1OC", "activity, negative = inhibition": "inactive: 7.69% [at 2.33 µM]"}
{"smiles": "Cn1c(=O)n(C)c2cc(/C=N/n3cnnc3)ccc21", "Potency": "inconclusive: 79.4 µM [inhibitor, single point]"}
{"smiles": "CCOC(=O)C1CCN(Cc2ccc(OC)cc2OC)CC1", "Potency": "inconclusive: 3.55 µM [inhibitor, partial curve, poor fit]"}
{"smiles": "COc1ccc(NC(=O)CCn2c(-c3ccc(F)cc3)cc(C(C)=O)c2C)c(OC)c1", "Potency": "inconclusive: 14.1 µM [inhibitor, partial curve, poor fit]"}
{"smiles": "O=c1c2ccccc2sn1-c1nccs1", "Potency": "active: 1.41 µM"}
{"smiles": "COc1ccc(-c2cc(C(C)=O)c(C)n2CCC(=O)Nc2ccc(C)c(Cl)c2)cc1", "activity, negative = inhibition": "inactive: -9.92%"}
{"smiles": "COC(=O)Cc1ccc(NC(=S)Nc2ccc(N3CCOCC3)cc2)cc1", "activity, negative = inhibition": "inconclusive: -85.4% [inhibitor]"}
{"smiles": "C#CCOc1ccc(/C=C2/C(=O)NN(c3ccccc3)C2=O)cc1OC", "Potency": "inconclusive: 50.1 µM [inhibitor, partial curve, poor fit]"}
{"smiles": "CCOC(=O)C1CCN(C(=O)/C=C/c2ccc3c(c2)OCO3)CC1", "Potency": "inconclusive: 0.355 µM [inhibitor, partial curve, poor fit]"}
